Assay results taken from paper PMC7884418.
Results are given in words; binding and its absence hold for the method and conditions named. In cells and extracts the contact can be indirect. Some results given as binding are weak or reduced against the parent protein; the word gives no strength. One block for each substance: values may come before it.

The chains behind the UniProt entries cited, without tags or fusion partners.
UniProt P46527: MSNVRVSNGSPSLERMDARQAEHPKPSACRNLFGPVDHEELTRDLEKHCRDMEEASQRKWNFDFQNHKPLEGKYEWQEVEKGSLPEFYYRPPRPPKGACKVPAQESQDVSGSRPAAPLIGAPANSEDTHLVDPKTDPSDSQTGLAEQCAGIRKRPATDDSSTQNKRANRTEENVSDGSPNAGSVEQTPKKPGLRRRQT
UniProt Q16763: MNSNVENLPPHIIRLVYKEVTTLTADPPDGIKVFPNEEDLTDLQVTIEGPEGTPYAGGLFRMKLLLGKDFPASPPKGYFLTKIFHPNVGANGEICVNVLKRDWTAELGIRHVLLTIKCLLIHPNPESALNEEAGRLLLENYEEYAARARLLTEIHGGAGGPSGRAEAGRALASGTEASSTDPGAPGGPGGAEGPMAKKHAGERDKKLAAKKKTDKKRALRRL
UniProt Q13263: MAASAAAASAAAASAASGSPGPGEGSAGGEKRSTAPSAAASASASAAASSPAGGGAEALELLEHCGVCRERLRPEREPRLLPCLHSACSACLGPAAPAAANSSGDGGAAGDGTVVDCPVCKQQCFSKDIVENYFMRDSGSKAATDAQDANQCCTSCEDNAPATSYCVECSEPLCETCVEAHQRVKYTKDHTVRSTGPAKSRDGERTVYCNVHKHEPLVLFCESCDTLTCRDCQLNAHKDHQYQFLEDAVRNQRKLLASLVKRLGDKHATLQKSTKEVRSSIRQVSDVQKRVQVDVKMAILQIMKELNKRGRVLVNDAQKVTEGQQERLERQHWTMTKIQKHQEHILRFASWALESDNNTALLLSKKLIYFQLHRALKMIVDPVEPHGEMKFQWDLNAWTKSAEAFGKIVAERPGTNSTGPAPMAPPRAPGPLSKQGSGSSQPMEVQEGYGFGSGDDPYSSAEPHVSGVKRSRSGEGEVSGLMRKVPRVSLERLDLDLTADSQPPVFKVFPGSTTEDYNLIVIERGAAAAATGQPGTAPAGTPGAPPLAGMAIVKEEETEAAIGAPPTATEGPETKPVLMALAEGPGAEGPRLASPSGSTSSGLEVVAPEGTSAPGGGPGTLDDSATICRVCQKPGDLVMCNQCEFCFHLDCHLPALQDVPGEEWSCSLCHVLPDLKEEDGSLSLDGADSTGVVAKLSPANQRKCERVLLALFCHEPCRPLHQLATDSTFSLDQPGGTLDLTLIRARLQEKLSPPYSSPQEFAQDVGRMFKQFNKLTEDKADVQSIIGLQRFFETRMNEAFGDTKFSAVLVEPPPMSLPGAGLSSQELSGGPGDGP

Columns and labels:
[1] = target: p27 (human (endogenous in HCC cells)) (UniProt P46527); assay: co-IP; endogenous proteins, nuclear extract of Huh-7 and MHCC-97H cells
[2] = target: p27 (human (endogenous in HCC cells)) (UniProt P46527); assay: co-IP; endogenous proteins, HCC cell lines, co-immunoprecipitation and western blot
UBE2S-EGFP [3] = target: UBE2S-EGFP (UniProt Q16763); assay: FRET or BRET; HEK293T cells transiently transfected with UBE2S-EGFP and TRIM28-DsRed2 plasmids; read in the nucleus
UBE2S-EGFP [4] = target: UBE2S-EGFP (UniProt Q16763); assay: FRET or BRET; HEK293T cells transiently transfected with UBE2S-EGFP and TRIM28-DsRed2 plasmids; read in the cytoplasm
exogenous UBE2S = exogenous UBE2S (UniProt Q16763); assay: co-IP; exogenous (transfected) proteins, co-immunoprecipitation and western blot
[5] = target: UBE2S (human (endogenous in Huh-7 and MHCC-97H)) (UniProt Q16763); assay: co-IP; endogenous proteins, nuclear extract of Huh-7 and MHCC-97H cells
[6] = target: UBE2S (human (endogenous in Huh-7 and MHCC-97H)) (UniProt Q16763); assay: co-IP; endogenous proteins, HCC cell lines, co-immunoprecipitation and western blot

binding [1]: binds
binding [2]: binds
Substance: UBE2S (from UniProt Q16763 1-222) (enzyme)

binding (UBE2S-EGFP [3]): binds
binding (UBE2S-EGFP [4]): no binding (condition: in the cytoplasm)
Substance: TRIM28-DsRed2 (from UniProt Q13263 1-835)

binding (exogenous UBE2S): binds
Substance: exogenous TRIM28 (from UniProt Q13263 1-835)

binding [1]: binds
binding [5]: binds
binding [2]: binds
binding [6]: binds
Substance: Tripartite motif-containing 28 (TRIM28) (from UniProt Q13263 1-835)
